Reference: PubChem BioAssay AID1645887 (National Center for Advancing Translational Sciences (NCATS), 2021)
Where “and” joins values, the source holds several entries; their conditions need not be identical. Equal values may be shown once. The whole screen tested about 16,000 compounds, of which about 40 (0.2%) were called active. Inconclusive results (about 1%) are left out. Calls follow the shape of the dose curve; as a rule, active = well fitted activation curve with a large enough effect; inconclusive = small, poorly fitted or top-dose-only effect, or another doubt; inactive = no such curve, though single readings can be large or run the other way. This is one part of the list. Starred links: 1 amine or outer side, 2 acyl side, 3 side chain; linkers in the order of their positions; H or OH if unused. Positions of bridges follow the written chain, without caps; N, C: chain ends. Non-standard residues stand in square brackets, D forms with d. Residues, ends and D or L forms follow the SMILES beside them. ξ: configuration not given here. *: point of attachment. ΔAla(E,3-NHCONH2) = NC(=O)N/C=C(/N)C(=O)O; X11 = NC1=NCCC(C(N[*:1])C(=O)[*:2])N1; ξβ3hOrn = NCCCC(N)CC(=O)*; Dap = NC[CH](N)C(=O)O

molecular target: Rap guanine nucleotide exchange factor 4 (Homo sapiens) (UniProt Q8WZA2); assay: Validation qHTS for agonist of cAMP-regulated guanine nucleotide exchange factor 4 (EPAC2); settings: EPAC2 Rap1B BODIPY-GDP exchange, fluorescence; activation: hits give high values;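 also: exchange makes BODIPY-GDP fluorescence drop when released from Rap1B; series mostly up to about 150 µM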
Chain of UniProt Q8WZA2 (Q8WZA2 whole entry, looked up): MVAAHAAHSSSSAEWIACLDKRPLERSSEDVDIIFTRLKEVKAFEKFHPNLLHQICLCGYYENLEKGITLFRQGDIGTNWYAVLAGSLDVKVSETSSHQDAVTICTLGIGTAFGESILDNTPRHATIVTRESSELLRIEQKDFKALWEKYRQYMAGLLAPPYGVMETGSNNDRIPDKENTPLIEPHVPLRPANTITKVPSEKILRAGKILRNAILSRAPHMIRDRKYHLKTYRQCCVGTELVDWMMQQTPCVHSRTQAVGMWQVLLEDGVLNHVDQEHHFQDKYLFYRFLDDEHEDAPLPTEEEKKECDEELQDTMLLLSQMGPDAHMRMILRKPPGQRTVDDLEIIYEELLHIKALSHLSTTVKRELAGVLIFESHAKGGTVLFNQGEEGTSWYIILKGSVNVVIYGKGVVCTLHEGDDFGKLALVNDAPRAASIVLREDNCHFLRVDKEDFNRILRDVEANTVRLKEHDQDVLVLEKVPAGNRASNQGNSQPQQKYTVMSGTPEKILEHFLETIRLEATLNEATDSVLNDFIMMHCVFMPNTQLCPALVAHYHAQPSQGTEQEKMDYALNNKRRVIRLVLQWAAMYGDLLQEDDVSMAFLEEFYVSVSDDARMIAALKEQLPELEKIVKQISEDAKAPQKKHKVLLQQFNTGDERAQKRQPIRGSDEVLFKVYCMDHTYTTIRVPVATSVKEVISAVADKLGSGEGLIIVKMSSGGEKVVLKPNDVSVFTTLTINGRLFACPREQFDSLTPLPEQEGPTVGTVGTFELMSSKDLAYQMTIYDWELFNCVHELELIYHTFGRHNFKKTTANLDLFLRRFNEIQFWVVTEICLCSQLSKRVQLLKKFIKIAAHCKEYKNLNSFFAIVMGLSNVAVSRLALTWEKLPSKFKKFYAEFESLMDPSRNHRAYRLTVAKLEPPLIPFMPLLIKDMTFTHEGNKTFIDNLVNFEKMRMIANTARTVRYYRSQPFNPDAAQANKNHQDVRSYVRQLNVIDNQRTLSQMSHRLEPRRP
Source text: Principle Investigator: Xiaodong Cheng Ph.D.
The University of Texas Medical Branch, […], TX
In multi-cellular eukaryotic organisms, the effects of cAMP are transduced by two ubiquitously-expressed intracellular cAMP receptors, the classic protein kinase A/cAMP-dependent protein kinase (PKA/cAPK) and the more recently discovered exchange protein directly activated by cAMP/cAMP-regulated guanine nucleotide exchange factor (EPAC/cAMP-GEF). Both PKA and EPAC are ubiquitously expressed in all tissues, and an increase in intracellular cAMP levels will lead to the activation of both PKA and EPAC. Therefore, careful dissections of the individual role and relative contribution of EPAC and PKA within the overall cAMP signaling in various model systems are critical for further elucidating the mechanism of cAMP signaling. To date no EPAC-specific antagonists and agonist, as well as isoform-specific agonists have been reported, and developing EPAC-specific pharmacological probes to determine the physiological functions that EPAC play in the overall cAMP-mediated signaling remains a major challenge within the research field. Furthermore, identified regulators of EPAC may lead to new mechanism-based therapeutic strategies specifically targeting the EPAC / cAMP-signaling components as EPAC has been implicated to play important roles in major human pathological conditions such as diabetes, heart disease, and cancer.
This qHTS will be used to screen the Molecular Libraries Small Molecule Repository (MLSMR) as a concentration-titration series using the NCGC unique quantitative screening (qHTS) platform to find activators for EPAC1. In addition, this assay will also be used as a counterscreen for the EPAC2 qHTS. This fluorescent based assay is developed and validated for EPAC1 that measures exchange using EPAC effector Rap1 complex with BODIPY-GDP, a GDP analog with a tethered fluorophores. Activators are identified by monitoring the change in fluorescence signal as the exchanged free BODIPY-GDP has a reduced fluorescence compared to Rap1-bound BODIPY-GDP. Increase in signal (activation) is the desired outcome for the EPAC1 agonist while no activity in this assay is desired for the EPAC2 agonist counterscreen.
[1] de Rooij, J., Zwartkruis, F. J., Verheijen, M. H., Cool, R. H., Nijman, S. M., Wittinghofer, A., and Bos, J.L. (1998) Nature 396, 474-477.
Briefly, three uL of reagents (100 nM EPAC2, 250 nM RAP1B-BODIPY-GDP, 50 uM GDP) were dispensed into a 1536-well Greiner black solid-bottom medium binding assay plate. Controls and test compounds (23 nL) were transferred to the plate via a Kalypsys pin tool equipped with a 1536-pin array. The plates were centrifuged at 1,000 rpm for 15 seconds followed by 5 minute incubation at room temperature. The assay plates were read at 5 minute intervals for 30 minutes in the ViewLux plate reader using 480nm excitation and 540nm emission filters. The results were normalized to the agonist positive control of 6.5 mM cAMP.
% is scaled to controls: 0 for no effect and ±100 for the full control effect.

activation, inactive:
CC1CCC2(C(=O)O)CCC3(C)C(=CCC4C3(C)CCC3[C@@]4(C)CC(O)C(O)[C@@]3(C)CO)C2C1C (some centres undefined) -48.2%
COc1ccc2nc(NC(=O)Nc3ccccc3)sc2c1 -21.3%
CS(=O)(=O)Nc1cccc(-c2ccc3ncnc(NCc4cccnc4)c3c2)c1 -10.3%
Cc1ccccc1-c1cc(NCc2ccccc2)ncn1 -9.16%
CC(=O)NCCNc1nc(-c2ccccc2C(F)(F)F)nc2ccccc12 -8.78%
Nc1ncnc2c1ncn2[C@@H]1O[C@H](COP(=O)(O)OP(=O)(O)OP(=O)(O)O)[C@@H](O)[C@H]1O 1.95%
CCC(=O)O[C@]1(C(=O)CCl)[C@@H](C)C[C@H]2[C@@H]3C[C@H](F)C4=CC(=O)C=C[C@]4(C)[C@@]3(F)[C@@H](O)C[C@@]21C 9.71%
CC(C)Oc1ccc2c(=O)c3cc(C(=O)O)ccc3oc2c1 -26.1%
CCOC(=O)/C=C/c1ccc2c(c1)S(=O)(=O)N(Cc1ccc(OC)cc1)[C@H]2CC(=O)OCC -12.4%
COCCn1c(=O)c(CCc2ccccc2)nc2cncnc21 -4.71%
Cc1cnc(CNc2nc(-c3ccccc3C)nc3ccccc23)cn1 0.402%
OC1CCN(Cc2ccc3c(c2)CN(C/C=C/c2ccco2)CCO3)CC1 -9.66%
Cc1noc(C)c1C(=O)N1CCC2(CC1)CCN(c1cccc(-c3ccccc3)c1)CC2 -35%
N[C@@H](C(=O)N[C@@H]1C(=O)N2C(C(=O)O)=C(CSc3cn[nH]n3)CS[C@H]12)c1ccc(O)cc1 4.47%
CCNc1ncc2nc(-c3cccc(C#N)c3)c(=O)n(CCC#N)c2n1 -7.9%
O=C(NCC1Cc2cc(-c3cnc4ccccc4c3)cc(F)c2O1)c1cnsn1 (centres undefined) -5.69%
N[C@H](Cc1ccc(Cl)cc1)C(=O)O -4.42%
COc1ccccc1C1CN(Cc2cn(C)nc2C)Cc2ccccc2O1 (centres undefined) -21.6%
COc1ccc(-c2cc(=O)c3ccc(O)cc3o2)cc1 2.86%
Cc1cc(C)c2ccccc2n1 -17.1%
Cc1c(C(=O)NN2CCOCC2)nn(-c2ccc(Cl)cc2Cl)c1-c1ccc(I)cc1 -23.8%
CCN1CC(CCN2CCOCC2)C(c2ccccc2)(c2ccccc2)C1=O (centres undefined) 16.5%
CN(C(=O)c1cnn(-c2ncc3c(n2)-c2ccccc2CCC3)c1C1CC1)C1CCOC1 (centres undefined) -15.6%
O=C(C[N+]1(CCc2ccccc2)CCOCC1)c1cccc([N+](=O)[O-])c1 -6.4%
COc1ccc(CN2CCCC(c3nc(-c4ccncc4)ncc3-c3ccccc3C)C2)c(OC)c1 (centres undefined) 5.11%
Cc1csc(-c2nc3ccccc3n2C)n1 1.35%
COCC(=O)N1CCC2(CC1)CN(C(=O)Nc1cccc(F)c1)C2 1.4%
O=C(O)Cc1sc(-c2ccccc2)nc1-c1ccc(Cl)cc1 -16.4% and -7.58% and -21.3%
CC(=O)OCC(=O)[C@@]12N=C(C)O[C@@H]1C[C@H]1[C@@H]3CCC4=CC(=O)C=C[C@]4(C)[C@H]3[C@@H](O)C[C@@]12C -10.6%
C#CCN1C(C)=C(C(=O)OC)C(c2cccc([N+](=O)[O-])c2)C(C(=O)OCC)=C1C (centres undefined) -23%
OCc1cc(C(O)CNCCCCCCOCCCCc2ccccc2)ccc1O (centres undefined) -15.4% and -30.7% and -69.4%
COc1ccc(C(=O)/C=C/c2ccccc2)cc1 -10.1%
COc1ccc(-c2nc3cnc(Oc4cccc(Cl)c4)nc3n(CCC#N)c2=O)cc1 -21.2%
C[C@@](N)(C(=O)O)c1cccc(CC(=O)O)c1 0.169%
Cc1noc(C)c1-c1nc(NCc2ccccc2)c2ccccc2n1 -23%
C[C@@H](CN1CC(=O)NC(=O)C1)N1CC(=O)NC(=O)C1 5.87%
O=S1(=O)CCO[C@H]2Cc3ccccc3[C@H]2N1Cc1ccccc1F -7.43%
O=c1c(-c2ccc(F)cc2)nc2cnc(N3CCOCC3)nc2n1Cc1cccs1 8.43%
FC(F)(F)c1ccccc1-c1nc(Nc2ccncc2)c2ccccc2n1 -2.13%
CC(=O)Nc1ccc(CC(=O)O)cc1 5.38%
O=c1c(-c2cccc(Cl)c2)nc2cncnc2n1C1CC1 0.439%
c1ccc(Nc2ncncc2-c2ccoc2)cc1 13.2%
COc1cccc(-c2ccc3ncnc(NCc4cnc(C)cn4)c3c2)c1 -10.8%
Fc1ccc(Nc2ncnc3ccc(-c4ccoc4)cc23)cc1 -23.2%
Cc1nc2n(c(=O)c1CCN1CCC(c3noc4cc(F)ccc34)CC1)CCCC2 6.04%
CNCCC(Oc1ccc(C(F)(F)F)cc1)c1ccccc1 (centres undefined) -19.6% and 3.82% and -43.8%
C(=C\c1ccnc2ccccc12)/c1ccc(N2CCNCC2)cc1 -34.3%
CC(C)[N+]1(C)C2CCC1CC(OC(=O)C(CO)c1ccccc1)C2 (centres undefined) -2.16% and 12.4%
O=S(=O)(O)CCS -1.59% and 0.998%
O=S1(=O)CCOCCCN1Cc1ccccc1 -1.85%
NCCCC(N)CC(=O)NCC1NC(=O)C(CO)NC(=O)C(N)CNC(=O)C(C2CCN=C(N)N2)NC(=O)/C(=C\NC(N)=O)NC1=O (stereo not drawn) (H-[Dap]S[Dap](ξβ3hOrn)[ΔAla(E,3-NHCONH2)][X11]; lactam 1-C; configuration not given here) -1.48%
CCn1cc(C(=O)O)c(=O)c2cnc(N3CCCC3)nc21 -4.76% and -9.46%
O=C(c1ccncc1)N1CCC2(CC1)CCN(c1ccccc1)CC2 -11.7%
CCOc1ccccc1OCCN[C@H](C)Cc1ccc(OC)c(S(N)(=O)=O)c1 -9.6%
C[C@@](N)(C(=O)O)c1ccc(S(=O)(=O)O)cc1 -21.4%
COc1cccc(-c2nc(N3CCNCC3)c3ccccc3n2)c1 -17.9%
Cc1cc2c(c(-c3cnccn3)c1)OC(CNC(=O)c1c(F)cccc1Cl)C2 (centres undefined) 1.81%
CCCCCCCCCCC/C=C\C(C)(C)/C=C\CCCC(=O)O -8.11% and -73.7%
CCCCCCCCCCCCC[N+](C)(C)Cc1ccccc1 2.4%
Nc1nc2c(ncn2C2OC(CO)CC2O)c(=O)[nH]1 (centres undefined) -11.3%
CC(C)(C)NC[C@H](O)c1ccc(O)c(CO)c1 -10.9%
Cc1cc2c(cc1C)N[C@]1(C[C@H]3CCCC(=O)N4CC[C@@H](C1)[C@@H]34)C(=Nc1ccccc1C)N2 -12.7%
CN(CC(=O)O)c1ccc(C=O)cc1 -9.52%
COc1ccc(C(=O)N2CCC3(CCN(Cc4ccncc4)CC3)CC2)cc1 -6.28%
CC(=O)Nc1c(I)c(C(=O)O)c(I)c(N(C)C(C)=O)c1I -16.5%
CC(=O)N[C@H](CS)C(=O)O 2.82%
COc1ccc2[nH]cc(CCNc3ncncc3-c3ccc(N(C)C)cc3)c2c1 -8.15%
COc1cccc(CN(C)C(=O)c2cnn(-c3nccc(-c4ccc5c(c4)OCO5)n3)c2C)c1 -8.12%
COc1ccc(-c2oc3ccccc3c(=O)c2O)cc1OC -0.984%
N#CCCn1c(=O)c(-c2ccccc2)nc2cnc(N3CCOCC3)nc21 -7.43%
Cc1cc(O)cc2c1O[C@](C)(CCC[C@H](C)CCC[C@H](C)CCCC(C)C)CC2 6.69% and -17.5%
CCCCNC(=O)NS(=O)(=O)c1ccc(C)cc1 -3.16% [middle of 4 runs]
Nc1c2ccccc2nc2ccccc12 (tested in a mixture with another compound) -10.5%
COC1C(O)CC(=O)OC(C)C/C=C/C=C/[C@@H](OC2CCC(N(C)C)C(C)O2)C(C)C[C@@H](CC=O)[C@@H]1O[C@H]1OC(C)[C@H](O[C@@H]2C[C@@](C)(O)C(O)C(C)O2)C(N(C)C)C1O (some centres undefined) 10%
COc1ccc(-c2nc3cnc(N4CCOCC4)nc3n(C[C@H]3CCCO3)c2=O)cc1 -8.33%
O=Cc1ccc2[nH]ccc2c1 -19.4%
COC(=O)c1c(C)cc(O)cc1O -7.42%
COc1c(CO)cc(CO)cc(CO)c1=O -64.9%
CCOC(=O)OC(C)OC1=C(C(=O)Nc2ccccn2)N(C)S(=O)(=O)c2ccccc21 (centres undefined) -0.524%
CC(=O)[C@H]1CC[C@H]2[C@@H]3C[C@H](C)C4=CC(=O)CC[C@]4(C)[C@H]3[C@@H](O)C[C@]12C 4.1%
[N-]=[N+]=N[C@@H](CCN1CC[C@H](NC(=O)OCc2ccccc2)CCC1=O)c1ccccc1 -8.4%
COCCn1c(=O)c(-c2cccs2)nc2cnc(N3CCN(C)CC3)nc21 5.09%
N#Cc1ccc(CN2CCC3(CCNCC3)CC2)cc1 7.14%
C[C@]12CC[C@@H]3c4ccc(O)cc4CC[C@H]3[C@@H]1CC[C@@H]2OP(=O)(O)O 7.32%
